# Laboratory results published in the supplement of paper PMC8728848.
# Some of the results follow.
# B1: DC-Sign (Homo sapiens), Q9NNX6 (protein)
# chain: MSDSKEPRLQQLGLLEEEQLRGLGFRQTRGYKSLAGCLGHGPLVLQLLSFTLLAGLLVQVSKVPSSISQEQSRQDAIYQNLTQLKAAVGELSEKSKLQEIYQELTQLKAAVGELPEKSKLQEIYQELTRLKAAVGELPEKSKLQEIYQELTWLKAAVGELPEKSKMQEIYQELTRLKAAVGELPEKSKQQEIYQELTRLKAAVGELPEKSKQQEIYQELTRLKAAVGELPEKSKQQEIYQELTQLKAAVERLCHPCPWEWTFFQGNCYFMSNSQRNWHDSITACKEVGAQLVVIKSAEEQNFLQLQSSRSNRFTWMGLSDLNQEGTWQWVDGSPLLPSFKQYWNRGEPNNVGEEDCAEFSGNGWNDDKCNLAKFWICKKSAASCSRDEEQFLSPAPATPNPPPA
# What was measured:
# Test in all cases: glycan array binding signal (z-score within array); higher = stronger binding
# Conditions in all cases: glycan notation: IUPAC condensed, linker removed
# [1] = target: GlcNAc(a1-3)Gal(b1-4)GlcNAc
# Summary of the method: (§1)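 Columns mapping to the same glycan were averaged after glycan names were converted to IUPAC-condensed notation. The data come from 3228 arrays in the Consortium for Functional Glycomics database, limited to those with an available protein sequence. Binding is reported as a within-array Z-score averaged across arrays of one protein sequence and across linkers.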
# [2] = target: GlcNAc(a1-4)Gal(b1-3)GlcNAc
# Summary of the method: as §1
# [3] = target: GlcNAc(a1-4)Gal(b1-4)GalNAc
# Summary of the method: as §1
# [4] = target: GlcNAc(a1-4)Gal(b1-4)GlcNAc
# Summary of the method: as §1
# [5] = target: GlcNAc(a1-4)Gal(b1-4)GlcNAc(b1-3)Gal(b1-4)Glc
# Summary of the method: as §1
# [6] = target: GlcNAc(a1-4)Gal(b1-4)GlcNAc(b1-3)Gal(b1-4)GlcNAc
# Summary of the method: as §1
# [7] = target: GlcNAc(a1-4)Gal(b1-4)GlcNAc(b1-3)Gal(b1-4)GlcNAc(b1-3)Gal(b1-4)GlcNAc
# Summary of the method: as §1
# [8] = target: GlcNAc(a1-4)Gal(b1-4)GlcNAc(b1-3)Gal(b1-4)[Fuc(a1-3)]GlcNAc(b1-3)Gal(b1-4)[Fuc(a1-3)]GlcNAc
# Summary of the method: as §1
# [9] = target: GlcNAc(a1-6)Gal(b1-4)GlcNAc
# Summary of the method: as §1
# [10] = target: GlcNAc(b1-2)Gal(b1-3)GalNAc
# Summary of the method: as §1
# [11] = target: GlcNAc(b1-2)Man(a1-3)[GlcNAc(b1-2)Man(a1-6)]Man(b1-4)GlcNAc(b1-4)GlcNAc
# Summary of the method: as §1
# [12] = target: GlcNAc(b1-2)Man(a1-3)[GlcNAc(b1-2)Man(a1-6)]Man(b1-4)GlcNAc(b1-4)[Fuc(a1-6)]GlcNAc
# Summary of the method: as §1
# [13] = target: GlcNAc(b1-2)Man(a1-3)[GlcNAc(b1-4)][GlcNAc(b1-2)Man(a1-6)]Man(b1-4)GlcNAc(b1-4)GlcNAc
# Summary of the method: as §1
# [14] = target: GlcNAc(b1-2)Man(a1-3)[GlcNAc(b1-4)][GlcNAc(b1-2)Man(a1-6)]Man(b1-4)GlcNAc(b1-4)[Fuc(a1-6)]GlcNAc
# Summary of the method: as §1
# [15] = target: GlcNAc(b1-2)[GlcNAc(b1-4)]Man(a1-3)[GlcNAc(b1-2)Man(a1-6)]Man(b1-4)GlcNAc(b1-4)GlcNAc
# Summary of the method: as §1
# [16] = target: GlcNAc(b1-2)[GlcNAc(b1-4)]Man(a1-3)[GlcNAc(b1-4)][GlcNAc(b1-2)Man(a1-6)]Man(b1-4)GlcNAc(b1-4)GlcNAc
# Summary of the method: as §1
# [17] = target: GlcNAc(b1-2)[GlcNAc(b1-4)]Man(a1-3)[GlcNAc(b1-4)][GlcNAc(b1-2)[GlcNAc(b1-6)]Man(a1-6)]Man(b1-4)GlcNAc(b1-4)GlcNAc
# Summary of the method: as §1
# [18] = target: GlcNAc(b1-2)[GlcNAc(b1-4)]Man(a1-3)[GlcNAc(b1-4)][GlcNAc(b1-2)[GlcNAc(b1-6)]Man(a1-6)]Man(b1-4)GlcNAc(b1-4)[Fuc(a1-6)]GlcNAc
# Summary of the method: as §1
# [19] = target: GlcNAc(b1-2)[GlcNAc(b1-6)]Man(a1-6)[GlcNAc(b1-2)Man(a1-3)]Man(b1-4)GlcNAc(b1-4)GlcNAc
# Summary of the method: as §1
# [20] = target: GlcNAc(b1-2)[GlcNAc(b1-6)]Man(a1-6)[GlcNAc(b1-2)Man(a1-3)]Man(b1-4)GlcNAc(b1-4)[Fuc(a1-6)]GlcNAc
# Summary of the method: as §1
# [21] = target: GlcNAc(b1-2)[GlcNAc(b1-6)]Man(a1-6)[GlcNAc(b1-4)][GlcNAc(b1-2)Man(a1-3)]Man(b1-4)GlcNAc(b1-4)GlcNAc
# Summary of the method: as §1
# GlcNAc(b1-3)Fuc = target: GlcNAc(b1-3)Fuc
# Summary of the method: as §1
# GlcNAc(b1-3)Gal = target: GlcNAc(b1-3)Gal
# Summary of the method: as §1
# [22] = target: GlcNAc(b1-3)Gal(b1-3)GalNAc
# Summary of the method: as §1
# GlcNAc(b1-3)Gal(b1-4)Glc = target: GlcNAc(b1-3)Gal(b1-4)Glc
# Summary of the method: as §1
# [23] = target: GlcNAc(b1-3)Gal(b1-4)GlcNAc
# Summary of the method: as §1
# [24] = target: GlcNAc(b1-3)Gal(b1-4)GlcNAc(b1-2)Man(a1-3)[GlcNAc(b1-3)Gal(b1-4)GlcNAc(b1-2)Man(a1-6)]Man(b1-4)GlcNAc(b1-4)GlcNAc
# Summary of the method: as §1
# [25] = target: GlcNAc(b1-3)Gal(b1-4)GlcNAc(b1-2)Man(a1-3)[GlcNAc(b1-3)Gal(b1-4)GlcNAc(b1-2)Man(a1-6)]Man(b1-4)GlcNAc(b1-4)[Fuc(a1-6)]GlcNAc
# Summary of the method: as §1
# [26] = target: GlcNAc(b1-3)Gal(b1-4)GlcNAc(b1-2)[GlcNAc(b1-3)Gal(b1-4)GlcNAc(b1-6)]Man(a1-6)[GlcNAc(b1-3)Gal(b1-4)GlcNAc(b1-2)Man(a1-3)]Man(b1-4)GlcNAc(b1-4)GlcNAc
# Summary of the method: as §1
# [27] = target: GlcNAc(b1-3)Gal(b1-4)GlcNAc(b1-3)Gal(b1-4)GlcNAc
# Summary of the method: as §1
# [28] = target: GlcNAc(b1-3)Gal(b1-4)GlcNAc(b1-3)Gal(b1-4)GlcNAc(b1-2)Man(a1-3)[GlcNAc(b1-3)Gal(b1-4)GlcNAc(b1-3)Gal(b1-4)GlcNAc(b1-2)Man(a1-6)]Man(b1-4)GlcNAc(b1-4)GlcNAc
# Summary of the method: as §1
# [29] = target: GlcNAc(b1-3)Gal(b1-4)GlcNAc(b1-3)Gal(b1-4)GlcNAc(b1-2)Man(a1-3)[GlcNAc(b1-3)Gal(b1-4)GlcNAc(b1-3)Gal(b1-4)GlcNAc(b1-2)Man(a1-6)]Man(b1-4)GlcNAc(b1-4)[Fuc(a1-6)]GlcNAc
# Summary of the method: as §1
# [30] = target: GlcNAc(b1-3)Gal(b1-4)GlcNAc(b1-3)Gal(b1-4)GlcNAc(b1-2)[GlcNAc(b1-3)Gal(b1-4)GlcNAc(b1-3)Gal(b1-4)GlcNAc(b1-6)]Man(a1-6)[GlcNAc(b1-3)Gal(b1-4)GlcNAc(b1-3)Gal(b1-4)GlcNAc(b1-2)Man(a1-3)]Man(b1-4)GlcNAc(b1-4)[Fuc(a1-6)]GlcNAc
# Summary of the method: as §1
# [31] = target: GlcNAc(b1-3)Gal(b1-4)GlcNAc(b1-3)Gal(b1-4)GlcNAc(b1-3)Gal(b1-4)GlcNAc(b1-2)Man(a1-3)[GlcNAc(b1-3)Gal(b1-4)GlcNAc(b1-3)Gal(b1-4)GlcNAc(b1-3)Gal(b1-4)GlcNAc(b1-2)Man(a1-6)]Man(b1-4)GlcNAc(b1-4)GlcNAc
# Summary of the method: as §1
# [32] = target: GlcNAc(b1-3)Gal(b1-4)GlcNAc(b1-3)Gal(b1-4)GlcNAc(b1-3)Gal(b1-4)GlcNAc(b1-2)Man(a1-3)[GlcNAc(b1-3)Gal(b1-4)GlcNAc(b1-3)Gal(b1-4)GlcNAc(b1-3)Gal(b1-4)GlcNAc(b1-2)Man(a1-6)]Man(b1-4)GlcNAc(b1-4)[Fuc(a1-6)]GlcNAc
# Summary of the method: as §1
# [33] = target: GlcNAc(b1-3)Gal(b1-4)GlcNAc(b1-3)Gal(b1-4)GlcNAc(b1-3)Gal(b1-4)GlcNAc(b1-2)[GlcNAc(b1-3)Gal(b1-4)GlcNAc(b1-3)Gal(b1-4)GlcNAc(b1-3)Gal(b1-4)GlcNAc(b1-6)]Man(a1-6)[GlcNAc(b1-3)Gal(b1-4)GlcNAc(b1-3)Gal(b1-4)GlcNAc(b1-3)Gal(b1-4)GlcNAc(b1-2)Man(a1-3)]Man(b1-4)GlcNAc(b1-4)[Fuc(a1-6)]GlcNAc
# Summary of the method: as §1
# [34] = target: GlcNAc(b1-3)Gal(b1-4)GlcNAc(b1-3)Gal(b1-4)GlcNAc(b1-3)Gal(b1-4)GlcNAc(b1-3)Gal(b1-4)GlcNAc(b1-2)Man(a1-3)[GlcNAc(b1-3)Gal(b1-4)GlcNAc(b1-3)Gal(b1-4)GlcNAc(b1-3)Gal(b1-4)GlcNAc(b1-3)Gal(b1-4)GlcNAc(b1-2)Man(a1-6)]Man(b1-4)GlcNAc(b1-4)GlcNAc
# Summary of the method: as §1
# [35] = target: GlcNAc(b1-3)Gal(b1-4)GlcNAc(b1-3)Gal(b1-4)GlcNAc(b1-3)Gal(b1-4)GlcNAc(b1-3)Gal(b1-4)GlcNAc(b1-2)Man(a1-3)[GlcNAc(b1-3)Gal(b1-4)GlcNAc(b1-3)Gal(b1-4)GlcNAc(b1-3)Gal(b1-4)GlcNAc(b1-3)Gal(b1-4)GlcNAc(b1-2)Man(a1-6)]Man(b1-4)GlcNAc(b1-4)[Fuc(a1-6)]GlcNAc
# Summary of the method: as §1
binder,measurement,setting,value
B1,glycan array binding signal (z-score),[1],-0.052
same,glycan array binding signal (z-score),[2],-0.185
same,glycan array binding signal (z-score),[3],-0.178
same,glycan array binding signal (z-score),[4],-0.127
same,glycan array binding signal (z-score),[5],-0.16
same,glycan array binding signal (z-score),[6],-0.186
same,glycan array binding signal (z-score),[7],-0.159
same,glycan array binding signal (z-score),[8],-0.137
same,glycan array binding signal (z-score),[9],-0.156
same,glycan array binding signal (z-score),[10],-0.085
same,glycan array binding signal (z-score),[11],-0.105
same,glycan array binding signal (z-score),[12],-0.154
same,glycan array binding signal (z-score),[13],-0.173
same,glycan array binding signal (z-score),[14],-0.046
same,glycan array binding signal (z-score),[15],-0.183
same,glycan array binding signal (z-score),[16],-0.156
same,glycan array binding signal (z-score),[17],-0.174
same,glycan array binding signal (z-score),[18],-0.179
same,glycan array binding signal (z-score),[19],-0.101
same,glycan array binding signal (z-score),[20],-0.173
same,glycan array binding signal (z-score),[21],-0.195
same,glycan array binding signal (z-score),GlcNAc(b1-3)Fuc,-0.17
same,glycan array binding signal (z-score),GlcNAc(b1-3)Gal,-0.2
same,glycan array binding signal (z-score),[22],-0.067
same,glycan array binding signal (z-score),GlcNAc(b1-3)Gal(b1-4)Glc,-0.168
same,glycan array binding signal (z-score),[23],-0.089
same,glycan array binding signal (z-score),[24],-0.127
same,glycan array binding signal (z-score),[25],-0.073
same,glycan array binding signal (z-score),[26],0.209
same,glycan array binding signal (z-score),[27],-0.139
same,glycan array binding signal (z-score),[28],-0.085
same,glycan array binding signal (z-score),[29],-0.066
same,glycan array binding signal (z-score),[30],-0.071
same,glycan array binding signal (z-score),[31],-0.122
same,glycan array binding signal (z-score),[32],-0.092
same,glycan array binding signal (z-score),[33],-0.101
same,glycan array binding signal (z-score),[34],-0.127
same,glycan array binding signal (z-score),[35],-0.126
